{
  "source": "paper PMC9911399",
  "about": "“Two distinct binding modes provide the RNA-binding protein RbFox with extraordinary sequence specificity”",
  "binders": {"B1": {"name": "GCCAGCA (DNA:RNA)", "RNA": "GGGAGACCGGAAUUCAGAUUGUCCGCCAGCAUUAAAUCCCGUCGUAGCCACCA", "DNA 1": "CAATCTGAATTCCGGTCTCCC", "DNA 2": "TGGTGGCTACGACGGGATT"}, "B2": {"name": "AGUAACG (DNA:RNA)", "RNA": "B1 RNA with G25A, C26G, C27U, G29A, A31G", "DNA 1": "CAATCTGAATTCCGGTCTCCC", "DNA 2": "TGGTGGCTACGACGGGATT"}, "B3": {"name": "CGGAACA (DNA:RNA)", "RNA": "B1 RNA with G25C, C26G, C27G, G29A", "DNA 1": "CAATCTGAATTCCGGTCTCCC", "DNA 2": "TGGTGGCTACGACGGGATT"}, "B4": {"name": "UCAACAA (DNA:RNA)", "RNA": "B1 RNA with G25U, C27A, G29C, C30A", "DNA 1": "CAATCTGAATTCCGGTCTCCC", "DNA 2": "TGGTGGCTACGACGGGATT"}, "B5": {"name": "UUCCAAU (DNA:RNA)", "RNA": "B1 RNA with G25U, C26U, A28C, G29A, C30A, A31U", "DNA 1": "CAATCTGAATTCCGGTCTCCC", "DNA 2": "TGGTGGCTACGACGGGATT"}, "B6": {"name": "GGGCAAG (DNA:RNA)", "RNA": "B1 RNA with C26G, C27G, A28C, G29A, C30A, A31G", "DNA 1": "CAATCTGAATTCCGGTCTCCC", "DNA 2": "TGGTGGCTACGACGGGATT"}, "B7": {"name": "UCUAUAA (DNA:RNA)", "RNA": "B1 RNA with G25U, C27U, G29U, C30A", "DNA 1": "CAATCTGAATTCCGGTCTCCC", "DNA 2": "TGGTGGCTACGACGGGATT"}, "B8": {"name": "AAAGGGA (DNA:RNA)", "RNA": "B1 RNA with G25A, C26A, C27A, A28G, C30G", "DNA 1": "CAATCTGAATTCCGGTCTCCC", "DNA 2": "TGGTGGCTACGACGGGATT"}, "B9": {"name": "AUUGUUA (DNA:RNA)", "RNA": "B1 RNA with G25A, C26U, C27U, A28G, G29U, C30U", "DNA 1": "CAATCTGAATTCCGGTCTCCC", "DNA 2": "TGGTGGCTACGACGGGATT"}, "B10": {"name": "GAUGGGC (DNA:RNA)", "RNA": "B1 RNA with C26A, C27U, A28G, C30G, A31C", "DNA 1": "CAATCTGAATTCCGGTCTCCC", "DNA 2": "TGGTGGCTACGACGGGATT"}, "B11": {"name": "UGUAGAG (DNA:RNA)", "RNA": "B1 RNA with G25U, C26G, C27U, C30A, A31G", "DNA 1": "CAATCTGAATTCCGGTCTCCC", "DNA 2": "TGGTGGCTACGACGGGATT"}, "B12": {"name": "GAGGACU (DNA:RNA)", "RNA": "B1 RNA with C26A, C27G, A28G, G29A, A31U", "DNA 1": "CAATCTGAATTCCGGTCTCCC", "DNA 2": "TGGTGGCTACGACGGGATT"}, "B13": {"name": "UCACGCU (DNA:RNA)", "RNA": "B1 RNA with G25U, C27A, A28C, A31U", "DNA 1": "CAATCTGAATTCCGGTCTCCC", "DNA 2": "TGGTGGCTACGACGGGATT"}, "B14": {"name": "CAAGCUU (DNA:RNA)", "RNA": "GGGAGACCGGAAUUCAGAUUGUCCCAAGCUUUUAAAUCCCGUCGUAGCCACCA", "DNA 1": "CAATCTGAATTCCGGTCTCCC", "DNA 2": "TGGTGGCTACGACGGGATT"}, "B15": {"name": "GACCCUG (DNA:RNA)", "RNA": "B14 RNA with C25G, A27C, G28C, U31G", "DNA 1": "CAATCTGAATTCCGGTCTCCC", "DNA 2": "TGGTGGCTACGACGGGATT"}, "B16": {"name": "GAGGGGC (DNA:RNA)", "RNA": "B14 RNA with C25G, A27G, C29G, U30G, U31C", "DNA 1": "CAATCTGAATTCCGGTCTCCC", "DNA 2": "TGGTGGCTACGACGGGATT"}, "B17": {"name": "GAAAAGA (DNA:RNA)", "RNA": "B1 RNA with C26A, C27A, G29A, C30G", "DNA 1": "CAATCTGAATTCCGGTCTCCC", "DNA 2": "TGGTGGCTACGACGGGATT"}, "B18": {"name": "CUCUUGU (DNA:RNA)", "RNA": "B14 RNA with A26U, A27C, G28U, C29U, U30G", "DNA 1": "CAATCTGAATTCCGGTCTCCC", "DNA 2": "TGGTGGCTACGACGGGATT"}, "B19": {"name": "AAGACCA (DNA:RNA)", "RNA": "B1 RNA with G25A, C26A, C27G, G29C", "DNA 1": "CAATCTGAATTCCGGTCTCCC", "DNA 2": "TGGTGGCTACGACGGGATT"}, "B20": {"name": "CUCGCUA (DNA:RNA)", "RNA": "B14 RNA with A26U, A27C, U31A", "DNA 1": "CAATCTGAATTCCGGTCTCCC", "DNA 2": "TGGTGGCTACGACGGGATT"}},
  "note": "Substitutions are numbered along the chain they refer to; changes in the protein carry UniProt numbers. The list shows a part of the results.",
  "data": [
    {"target": "T1, RBFOX1 RRM (Homo sapiens, UniProt Q9NWB1 109-208)", "T1 sequence": "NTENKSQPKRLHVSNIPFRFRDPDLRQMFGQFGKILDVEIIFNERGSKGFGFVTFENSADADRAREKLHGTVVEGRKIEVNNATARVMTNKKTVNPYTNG", "experiment": "EMSA; HiTS-Eq, 1 nM pool, 10 min; buffer printed only for the single-RNA assays: 10 mM Tris pH 7.5, 150 mM NaCl, 3.4 mM EDTA, 0.001% NP-40, 30 C", "conditions": "tags: His6 N-terminal (pET28a); label: 5' 32P", "in_short": "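Purified RbFox RRM (wild type or mutant) was equilibrated for 10 min in 50 µL with 1 nM of a 5′-radiolabelled pool of RNA with 7 randomized nucleotides, its flanks annealed to DNA oligonucleotides, across increasing protein concentrations. Free RNA was separated by 8% native PAGE, excised, reverse-transcribed, PCR-barcoded and sequenced on an Illumina HiSeq 2500. Relative association constants came from read-count changes of each variant against the control reaction, normalised to the cognate motif.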", "values": [
      {"binder": "B1", "binding signal": "0.0138 KA relative to UGCAUGU"},
      {"binder": "B2", "binding signal": "0.00714 KA relative to UGCAUGU"},
      {"binder": "B3", "binding signal": "0.019 KA relative to UGCAUGU"},
      {"binder": "B4", "binding signal": "0.000161 KA relative to UGCAUGU"},
      {"binder": "B5", "binding signal": "0.00158 KA relative to UGCAUGU"},
      {"binder": "B6", "binding signal": "0.0135 KA relative to UGCAUGU"},
      {"binder": "B7", "binding signal": "0.00121 KA relative to UGCAUGU"},
      {"binder": "B8", "binding signal": "0.00483 KA relative to UGCAUGU"},
      {"binder": "B9", "binding signal": "0.0062 KA relative to UGCAUGU"},
      {"binder": "B10", "binding signal": "0.0134 KA relative to UGCAUGU"},
      {"binder": "B11", "binding signal": "0.0221 KA relative to UGCAUGU"},
      {"binder": "B12", "binding signal": "0.0055 KA relative to UGCAUGU"},
      {"binder": "B13", "binding signal": "0.00491 KA relative to UGCAUGU"},
      {"binder": "B14", "binding signal": "0.00502 KA relative to UGCAUGU"},
      {"binder": "B15", "binding signal": "0.0142 KA relative to UGCAUGU"},
      {"binder": "B16", "binding signal": "0.0183 KA relative to UGCAUGU"},
      {"binder": "B17", "binding signal": "0.00682 KA relative to UGCAUGU"},
      {"binder": "B18", "binding signal": "0.012 KA relative to UGCAUGU"},
      {"binder": "B19", "binding signal": "0.000241 KA relative to UGCAUGU"},
      {"binder": "B20", "binding signal": "0.00606 KA relative to UGCAUGU"}
    ]}
  ]
}
